Experimental data taken from publication PMC7457539.
These are yes or no findings as the source states them, for the method shown. In cells and extracts the contact can be indirect. Some binding calls cover weakened binding; strength is not graded here.

Amino acid sequences for entries named in this document (tags omitted).
UniProt O95863: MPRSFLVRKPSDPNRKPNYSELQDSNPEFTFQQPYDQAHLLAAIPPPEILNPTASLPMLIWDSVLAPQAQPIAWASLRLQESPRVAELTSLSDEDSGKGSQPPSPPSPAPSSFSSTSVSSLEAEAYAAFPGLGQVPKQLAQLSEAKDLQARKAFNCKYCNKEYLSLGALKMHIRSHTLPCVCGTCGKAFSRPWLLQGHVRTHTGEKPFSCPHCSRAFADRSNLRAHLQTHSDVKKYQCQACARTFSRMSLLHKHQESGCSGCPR
UniProt O15372: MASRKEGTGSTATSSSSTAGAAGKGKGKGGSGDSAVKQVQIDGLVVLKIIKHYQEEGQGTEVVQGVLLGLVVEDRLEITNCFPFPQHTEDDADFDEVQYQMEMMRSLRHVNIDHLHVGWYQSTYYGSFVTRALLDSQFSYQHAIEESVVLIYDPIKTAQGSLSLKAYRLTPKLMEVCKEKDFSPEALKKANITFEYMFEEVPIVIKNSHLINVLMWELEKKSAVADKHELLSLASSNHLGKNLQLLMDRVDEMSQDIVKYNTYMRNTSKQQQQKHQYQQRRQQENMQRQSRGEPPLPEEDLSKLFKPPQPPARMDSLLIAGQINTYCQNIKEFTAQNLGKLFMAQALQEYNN
UniProt Q13347: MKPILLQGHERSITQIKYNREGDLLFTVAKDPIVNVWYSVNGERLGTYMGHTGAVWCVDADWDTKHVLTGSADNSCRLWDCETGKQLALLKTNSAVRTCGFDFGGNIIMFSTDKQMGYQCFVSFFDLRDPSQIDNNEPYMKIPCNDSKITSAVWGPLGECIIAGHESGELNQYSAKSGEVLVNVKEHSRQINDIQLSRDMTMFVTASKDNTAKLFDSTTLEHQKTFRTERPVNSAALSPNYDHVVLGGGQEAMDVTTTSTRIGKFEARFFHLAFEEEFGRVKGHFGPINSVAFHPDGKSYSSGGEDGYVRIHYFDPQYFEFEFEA

How the values were obtained:
[1] = target: endogenous Snail (human (endogenous in KYSE510 and HEK293T)) (UniProt O95863); assay: co-IP; endogenous proteins of KYSE510 cells (also with EIF3H knock-down, Fig. S2B), anti-Snail antibody at 4 C for 12 h, protein A/G agarose beads, immunoblotting
[2] = target: endogenous Snail (human (endogenous in KYSE510 and HEK293T)) (UniProt O95863); assay: co-IP; endogenous proteins of HEK293T cells with EIF3H knock-down (Fig. S2A), anti-Snail antibody, immunoblotting
EIF3H-Flag (human) = EIF3H-Flag (human) (UniProt O15372); assay: co-IP; co-expression in HEK293T, 10 uM MG132 for 4 h, whole cell lysates with anti-Flag M2 affinity gel at 4 C for 12 h, washed five times with RIPA buffer, immunoblotting
[3] = target: Snail-Flag (full length, wild type) (UniProt O95863); assay: as above

| binding [1] | binding [2] | binding (EIF3H-Flag (human)) | binding [3] | Substance |
| --- | --- | --- | --- | --- |
| no binding | no binding |  |  | EIF3I (endogenous) (from UniProt Q13347 1-325) |
|  |  | binds |  | Snail (untagged, transfected) (from UniProt O95863 1-264) |
|  |  |  | binds | EIF3H (untagged, transfected) (from UniProt O15372 1-352) |
| binds | binds |  |  | endogenous EIF3H (from UniProt O15372 1-352) |
